Measurements from PubChem BioAssay AID624296 (National Center for Advancing Translational Sciences (NCATS), 2012).
Screen size: about 350,000 compounds; about 9,900 (2.8%) were called active. The inconclusive results got no clear call from the source; some entries with a clear call stand among them for comparison. Calls come from the whole dose curve; as a rule, active = well fitted activation curve with a large enough effect; inconclusive = small, poorly fitted or top-dose-only effect; inactive = no such curve, though single readings can be large or run the other way. No potency is given beside an inconclusive call; the fits are too rough.

experiment: A quantitative high throughput screen for small molecules that induce DNA re-replication in MCF 10a normal breast cells.; note: nearly all actives have a fitted effect of over 50% in size; conditions: MCF 10A DNA re-replication, Hoechst nuclear intensity, 48 h; series mostly up to 46.1 µM
Potency is the fitted concentration of half-maximal effect; tags give direction and shape of the fitted curve.

| SMILES | Potency |
| --- | --- |
| COc1ccc(S(=O)(=O)N(Cc2nc3ccccc3c(=O)[nH]2)C2CCCC2)cc1 | inconclusive [activator, partial curve, poor fit] |
| FC(F)(F)c1cc(Oc2ccccc2Cl)nc(-c2ccccn2)n1 | inconclusive [activator, single point] |
| Cc1ccc2c(CN3CC(C)CC(C)C3)cc(=O)oc2c1C (stereo not given) | inconclusive [activator, partial curve, poor fit] |
| COc1cccc(/C=N/NC(=O)c2oc3nc(-c4ccccc4)cc(-c4ccco4)c3c2N)c1 | inconclusive [activator, single point] |
| Cc1ccnc(SCC(=O)c2ccc(Br)cc2)c1C#N | inconclusive [activator, full curve, poor fit] |
| CCCCCc1nc2sc3c(c2c(=O)n1N)CCC3 | inconclusive [activator, partial curve, poor fit] |
| O=C1c2ccccc2C(=O)N1CCCCN(C(=O)c1cc([N+](=O)[O-])cc([N+](=O)[O-])c1)c1ccc(Cl)cc1 | inactive |
| O=C(N/N=C/c1cc(Cl)cc([N+](=O)[O-])c1O)NC12CC3CC(CC(C3)C1)C2 | active: 18.4 µM |
| Cc1ccc(C(=O)NC(C)c2ccc(-n3ccnc3)cc2)o1 (stereo not given) | inactive |
| Cc1cccc(C)c1NC(=O)C(=O)NCC1CCCN1S(=O)(=O)c1cccs1 (stereo not given) | inconclusive [activator, single point] |
| Cc1ccc(NC(=S)N=Nc2c(O)n(C)c3ccc(S(=O)(=O)N4CCOCC4)cc23)cc1C | inconclusive [activator, full curve] |
| OC12CCCCC1C(c1ccc3c(c1)OCO3)N(Cc1cccc(F)c1)CC2 (stereo not given) | inconclusive [activator, partial curve, poor fit] |
| CCC1CSC(Nc2ccc(C(=O)/C=C/c3ccc(Oc4ccccc4)cc3)cc2)=N1 (stereo not given) | inconclusive [activator, partial curve] |
| COc1cccc(CNC(=O)COC(=O)CNC(=O)c2ccc(-c3ccccc3)cc2)c1 | inactive |
| O=C(Nc1ccccc1Cl)C1CCCN(S(=O)(=O)c2cccc3cccnc23)C1 (stereo not given) | inconclusive [activator, partial curve, poor fit] |
| COc1ccc(OC)c2[nH]c(=O)c(CCNC(=O)c3ccc(S(=O)(=O)N(C)C)cc3)cc12 | inactive |
| O=C1NC(=O)c2cc3ccccc3cc21 | inactive |
| COc1ccccc1NC(=O)c1cc2cc(Br)ccc2cc1O | inconclusive [activator, single point] |
| Cc1cc(C)cc(OCC(=O)Nc2cccc(S(=O)(=O)NC3=NCCC3)c2)c1 | inconclusive [activator, single point] |
| Cn1c(SCC(=O)N2c3ccccc3Sc3ccccc32)nc2ccccc21 | inconclusive [activator, partial curve, poor fit] |
| Cc1ccc(N(C(=O)Cn2nnc3ccccc32)C(C(=O)NC2CCCCC2)c2cn(C)nc2C)cc1 (stereo not given) | inactive |
| CCN(CC)CCCNc1nc2cc(OC)c(OC)cc2c2nc(-c3ccccc3)nn12 | inconclusive [activator, single point] |
| Cc1cc(C)cc(Nc2cc(=O)n(C3CCCCC3)c(=O)[nH]2)c1 | inconclusive [activator, single point] |
| O=C(NCCc1ccc(Cl)cc1)C1CC(=O)N(C2CCCC2)C1 (stereo not given) | inactive |

| SMILES | Potency |
| --- | --- |
| Cc1ccc(C(=O)NC(=C(Cl)Cl)S(=O)(=O)c2ccc(C)cc2)cc1 | active: 13 µM |
| c1ccc(COc2cccc(CN3CCN(c4ccccn4)CC3)c2)cc1 | inconclusive [activator, partial curve, poor fit] |
| CCOC(=O)C1CCC(CN(Cc2ccccc2C)S(=O)(=O)c2ccc([N+](=O)[O-])cc2)CC1 (stereo not given) | inconclusive [activator, partial curve, poor fit] |
| COc1cccc(C(c2nnnn2Cc2ccc(F)cc2)N2CCC(C(N)=O)CC2)c1OC (stereo not given) | inactive |
| COc1ccc(OC)c(-c2csc(NC(=O)CSc3ccc(Br)cc3)n2)c1 | inactive |
| CC(C)C[C@H](NC(=O)c1[nH]cnc1C(=O)N[C@H](C)c1ccccc1)C(=O)OC(C)(C)C | inconclusive [activator, single point] |
| Nc1ccc(Cl)c(-c2nc3ncccc3o2)c1 | inconclusive [activator, partial curve, poor fit] |
| O=c1[nH]c2cc([N+](=O)[O-])ccc2c2ccccc12 | inactive |
| CC(C)Cn1c(N)c(C(=O)COC(=O)CCNS(=O)(=O)c2ccccc2)c(=O)n(C)c1=O | inactive |
| COc1cc(NC(=O)c2ccc(COc3ccccc3Br)o2)cc(OC)c1OC | inconclusive [activator, single point] |
| O=C(COC(=O)CC1CCCC1)Nc1ccc(Cl)cc1 | inactive |
| O=C(Nc1c(F)c(F)c(F)c(F)c1F)NC1CCCCC1 | inactive |
| O=C(c1ccncc1)N1N=C(C2CC2)CC1(O)C(F)(F)F (stereo not given) | inconclusive [activator, partial curve, poor fit] |
| CN1CCN(c2nc(-c3ccccn3)nc3ccccc23)CC1 | inactive |
| CCCCCCSc1ccc(-c2nc3cc(C)ccn3c2NC2CCCCC2)cc1 | active: 18.4 µM |
| Cc1ccc(OCCC(=O)OCC(=O)N2c3ccccc3NC(=O)C2(C)C)cc1 | inconclusive [activator, full curve, poor fit] |
| CN(C)c1ccc(/C=C/c2nnnn2-c2ccccc2)cc1 | inconclusive [activator, single point] |
| Cn1c(N/N=C/c2ccccc2)nc2sc3c(c2c1=O)CCC3 | inconclusive [activator, full curve, poor fit] |
| C=CCn1c(COc2cc(C)ccc2C(C)C)nnc1SCC(=O)c1c(N)n(C)c(=O)n(C)c1=O | inconclusive [activator, single point] |
| CC(=O)C(Cc1ccccc1)NC(=O)CCl (stereo not given) | inactive |
| COc1cc(OC)cc(-c2nnc(SCC(=O)N(C(C)C)C(C)C)o2)c1 | inconclusive [activator, single point] |
| CC(NC(=S)NC1CCCCC1)C(c1ccccc1)N1CCOCC1 (stereo not given) | inconclusive [activator, single point] |
| O=C1c2ccccc2C(=O)N1CCSC(=S)N1CCOCC1 | inactive |
| O=C(CCCCCn1c(=S)[nH]c2cc3c(cc2c1=O)OCO3)N1CCN(C2CCCCC2)CC1 | inconclusive [activator, single point] |

| SMILES | Potency |
| --- | --- |
| O=C(/C=C/c1c(F)cccc1Cl)c1ccc(F)cc1 | inconclusive [activator, single point] |
| CCCCCn1c(=O)[nH]c2cc(C(=O)NC3CCN(Cc4ccccc4)CC3)ccc2c1=O | inconclusive [activator, full curve, poor fit] |
| CC(C)OC(=O)CC(=O)c1sc2nc3c(cc2c1N)CN(C)CC3 | inactive |
| O=C(CN1C(=O)COc2ccccc21)N(Cc1ccc2c(c1)OCO2)CC1CCCO1 (stereo not given) | inconclusive [activator, single point] |
| Cc1ccc(SC[C@H](c2ccccc2)N2CCN(CC(C)C)CCC2=O)cc1 | inactive |
| Cc1cc(NC(=O)Cc2ccccc2)ccc1NC(=O)c1cccs1 | inactive |
| Cc1ccc(NC(=O)C2SC(=Nc3ccccc3)C(C(=O)Nc3ccc(Cl)cc3)=C2N)cc1 (stereo not given) | active: 20.6 µM |
| O=C(N/N=C/c1ccccn1)c1cc(-c2ccc(Br)s2)[nH]n1 | inconclusive [activator, single point] |
| CC1C(=O)Nc2ccc(S(=O)(=O)N3CCCCCC3)cc21 (stereo not given) | inactive |
| O=C1OC(c2ccccc2)=C/C1=C/N1CCCCC1 | inconclusive [activator, single point] |
| Cc1ccc(C)c(NC(=O)C2CC(=O)N(C3CCCCC3)C2)c1 (stereo not given) | inconclusive [activator, partial curve, poor fit] |
| CCCC(=O)NC(NC(=S)Nc1c(C)n(C)n(-c2ccccc2)c1=O)C(Cl)(Cl)Cl (stereo not given) | inactive |
| CC(C)c1ccc(/C=C2\SC(=O)N(CC(=O)NCCCn3ccnc3)C2=O)cc1 | inconclusive [activator, partial curve, poor fit] |
| Cc1cc(/C=N/O)c(C)n1-c1ccccc1 | inactive |
| COc1ccc(N2CCN(C(=O)CSc3nnc4c(C)cc5cc(C)ccc5n34)CC2)cc1 | inactive |
| Cc1cc(N/N=C/c2ccc(O)cc2O)nc(-c2ccccc2O)n1 | inconclusive [activator, single point] |
| Cc1ccccc1OCCC(=O)OCC(=O)Nc1ccc(N2CCOCC2)cc1 | inconclusive [activator, single point] |
| CCN(CC(=O)NCc1cccs1)CC(=O)Nc1ccccc1C | inactive |
| Cc1ccc(NC(=O)CN(Cc2ccco2)Cc2ccccc2O)cc1C | inconclusive [activator, single point] |
| CC1CCc2c(nc3sc4c(c3c2N)CCCC4)C1 (stereo not given) | inconclusive [activator, single point] |
| Cn1c(SCC(=O)C(C)(C)C)nnc1-c1ccc(F)cc1 | inactive |
| COc1ccc2c(c1)C1C=CCC1C(c1cc3c(cc1Br)OCO3)N2 (stereo not given) | active: 3.66 µM |
